This is one part of the list. For some assays here: At the low end of the ranking, values are background and their order means little. For some assays here: The protein was read in a cell extract, so binding may be indirect.
Molecular target: PU.1 (IVT) (UniProt P17947)
Assay: protein-binding microarray (PBM)
Details: 20 mM HEPES pH 7.9, 100 mM NaCl, 1 mM DTT, 0.2 mg/mL BSA, 0.02% Triton X-100, 2% milk, 0.4 mg/mL salmon testes DNA; 1 h; temperature not stated; high values mean tight binding; double strand, one strand shown; sequences stand for … in GCCTAGCAC…GTGCTAGGTCTTGATTCGCTTGACGCTGCTG

Sequence	binding signal
TAAAGGAGCAACTGAAACCA	-0.153 z-score
AAAAAAGGGAAATGAAACTA	4.72 z-score
AGAAAGAGGAAGGGAAACTA	4.07 z-score
TGAGAGGAGAAGTGAAACAT	1.28 z-score
AAATTGAGGAAATGAAACTA	4.46 z-score
CCCAACAGGAAGTGAAACAG	4.25 z-score
TGAGAGGAGGAGTGAAACCT	-0.199 z-score
TAATAGAGGAAGTGAAACTA	6.28 z-score
TGAAACAGAAAGTGAAACCA	0.0976 z-score
GATAAGCGGAACTGAAAGCT	4.14 z-score
GATAAGAGGAAGTGAAAGCT	6.94 z-score
GATAAGAGGAACTGAAAGTT	4.34 z-score
TAGTAGAGGAAGTGAAAGCA	3.84 z-score
GATAAGAGGAACTGAAAGCG	4.2 z-score
TGAAACGGGAAGTGAAACCA	6.35 z-score
AAAAAGAGGAAGAGAAACTA	5.79 z-score
GAAATGAGGAACAGAAACTG	4.35 z-score
TTGGTCAGGAAGTGAAACTG	1.38 z-score
CTGCCAGGGAAGTAAAAGCA	0.732 z-score
AACAAAAGGAAATGAAAGTA	0.996 z-score

Sequence	binding signal
TTTTTGAGGAACTGAAACTT	4.94 z-score
CTGACAGGGAACTGAAACTC	1.1 z-score
TAATGGAGGAACTGAAACCA	1.93 z-score
AAAAAGAGGAACAGAAACTG	5.78 z-score
AAAAAGAGGAAGGGAAACTG	5.59 z-score
ATTAAGGGGAAGTGAAACAT	5.15 z-score
AAAATAAGGAAATGAAAGTA	3.43 z-score
CTGCCAGGGAAGTGAAAGCT	0.857 z-score
TAAAGGAGGTACTGAAACCA	0.362 z-score
CTGGCAGGGAACTGAAACTC	0.625 z-score
TGGCAGAGGACGTGAAACTA	-0.354 z-score
TGAGAGAAGAAGTGAAACCT	0.83 z-score
TGAGAGGAGAAGTGAAAACT	1.24 z-score
AGAAAGGGGAACAGAAACTG	3.94 z-score
AAAAGTAGGAAGTGAAACTA	5.32 z-score
GATAATAGGAACTGAAAGCT	2.28 z-score
ACTCATAGGAACTGAAAGTA	0.775 z-score
TAAAAGGAGAAGTGAAACTG	5.07 z-score
TAAAGGAGGGACTGAAACCA	-0.169 z-score
CTGGCAGGGAACTCAAACTC	0.554 z-score

Molecular target: T1, FLI1 (endogenous, THP-1 nuclear extract) (UniProt Q01543)
T1 sequence: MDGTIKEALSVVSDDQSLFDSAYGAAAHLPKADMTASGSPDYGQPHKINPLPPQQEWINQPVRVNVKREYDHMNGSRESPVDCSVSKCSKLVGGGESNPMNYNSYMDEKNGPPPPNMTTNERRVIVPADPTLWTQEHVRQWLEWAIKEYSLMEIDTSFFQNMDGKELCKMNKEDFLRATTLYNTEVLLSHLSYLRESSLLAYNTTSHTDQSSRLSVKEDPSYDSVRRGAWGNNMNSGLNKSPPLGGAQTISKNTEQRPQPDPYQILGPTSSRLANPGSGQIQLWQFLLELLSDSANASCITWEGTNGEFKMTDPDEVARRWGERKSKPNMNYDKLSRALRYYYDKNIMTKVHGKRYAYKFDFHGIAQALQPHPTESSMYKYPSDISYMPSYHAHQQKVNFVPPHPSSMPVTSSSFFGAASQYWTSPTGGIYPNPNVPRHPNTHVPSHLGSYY
Assay: nuclear extract protein-binding microarray (nextPBM)
Details: 20 mM HEPES pH 7.9, 100 mM NaCl, 1 mM DTT, 0.2 mg/mL BSA, 0.02% Triton X-100, 2% milk, 0.4 mg/mL salmon testes DNA; 1 h; temperature not stated; high values mean tight binding; double strand, one strand shown; sequences stand for … in GCCTAGCAC…GTGCTAGGTCTTGATTCGCTTGACGCTGCTG

Sequence	binding signal
TAAAGGAGCAACTGAAACCA	-1.01 z-score
AAAAAAGGGAAATGAAACTA	3.09 z-score
AGAAAGAGGAAGGGAAACTA	2.35 z-score
TGAGAGGAGAAGTGAAACAT	0.48 z-score
AAATTGAGGAAATGAAACTA	3.06 z-score
CCCAACAGGAAGTGAAACAG	4.98 z-score
TGAGAGGAGGAGTGAAACCT	0.09 z-score
TAATAGAGGAAGTGAAACTA	3.95 z-score
TGAAACAGAAAGTGAAACCA	0.359 z-score
GATAAGCGGAACTGAAAGCT	2.01 z-score
GATAAGAGGAAGTGAAAGCT	3.87 z-score
GATAAGAGGAACTGAAAGTT	1.67 z-score
TAGTAGAGGAAGTGAAAGCA	2.9 z-score
GATAAGAGGAACTGAAAGCG	1.61 z-score
TGAAACGGGAAGTGAAACCA	4.38 z-score
AAAAAGAGGAAGAGAAACTA	2.51 z-score
GAAATGAGGAACAGAAACTG	1.83 z-score
TTGGTCAGGAAGTGAAACTG	3.29 z-score
CTGCCAGGGAAGTAAAAGCA	0.493 z-score
AACAAAAGGAAATGAAAGTA	2.35 z-score

Sequence	binding signal
TTTTTGAGGAACTGAAACTT	2.38 z-score
CTGACAGGGAACTGAAACTC	0.393 z-score
TAATGGAGGAACTGAAACCA	1.21 z-score
AAAAAGAGGAACAGAAACTG	2.68 z-score
AAAAAGAGGAAGGGAAACTG	2.77 z-score
ATTAAGGGGAAGTGAAACAT	2.95 z-score
AAAATAAGGAAATGAAAGTA	2.23 z-score
CTGCCAGGGAAGTGAAAGCT	0.735 z-score
TAAAGGAGGTACTGAAACCA	-0.127 z-score
CTGGCAGGGAACTGAAACTC	0.378 z-score
TGGCAGAGGACGTGAAACTA	0.336 z-score
TGAGAGAAGAAGTGAAACCT	0.145 z-score
TGAGAGGAGAAGTGAAAACT	0.404 z-score
AGAAAGGGGAACAGAAACTG	1.87 z-score
AAAAGTAGGAAGTGAAACTA	4.25 z-score
GATAATAGGAACTGAAAGCT	0.871 z-score
ACTCATAGGAACTGAAAGTA	0.418 z-score
TAAAAGGAGAAGTGAAACTG	3.23 z-score
TAAAGGAGGGACTGAAACCA	-0.11 z-score
CTGGCAGGGAACTCAAACTC	0.601 z-score
